# Test results from the supplement of paper PMC7335073.
# In all, about 4,100 sequences were measured (“relative CpG methylation activity (normalised to average over all NNNCGNNN flanks)”: median about 0.87, highest 2% from about 2.4 on). Some of the results follow.
# Molecular target: DNMT3A catalytic domain (mouse) (UniProt O88508)
# Assay: relative CpG methylation activity (normalised to average over all NNNCGNNN flanks) (relative (1 = mean)); higher = more methylation of the central CpG
# Settings: system: in vitro, murine catalytic domain; CpG state: hemimethylated substrate pool; residues: 608-908
# Procedure: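 Deep enzymology: a pool of dsDNA substrates with a central CpG flanked by 10 random nucleotides on each side was methylated by the murine DNMT3A or DNMT3B catalytic domain (0.8 mM SAM, 37 °C, 60 min). Methylation was then read out by hairpin ligation, bisulfite conversion and NGS. Values are the average methylation of each NNNCGNNN context (±3 flanks; the outer flanks are random and averaged over), normalised to the overall mean, so 1 = average activity.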
row,Sequence,relative CpG methylation activity
1,GAGCGTCT,1.09
2,AATCGTTG,0.24
3,AGCCGACC,1.1
4,ATGCGATG,0.851
5,CGCCGCAC,0.823
6,CGTCGCCT,2.06
7,GTACGGGC,1.82
8,TTACGTTC,2.04
9,AACCGGTC,1
10,TAACGTAG,0.514
11,CTGCGTTC,1.5
12,AGACGATC,0.959
13,ATGCGTCC,1.99
14,GGGCGTTG,0.405
15,GGACGCAA,0.614
16,GAGCGATT,0.528
17,CTCCGTCG,1.92
18,CCCCGGGA,0.853
19,CACCGACT,0.89
20,CCTCGTCC,2.31
21,CCTCGCAG,0.442
22,GGACGTGC,0.431
23,TACCGAGT,1.08
24,CGCCGCTA,0.842
25,GGACGGAC,0.861

row,Sequence,relative CpG methylation activity
1,TGTCGAAG,0.216
2,TTACGTCT,2.14
3,GCCCGGAT,0.551
4,CCACGACT,1.02
5,TCCCGATG,0.609
6,CCGCGGGC,0.748
7,GTCCGCAC,2.12
8,AGGCGTAG,0.22
9,GCCCGTGC,0.536
10,CCCCGCAA,0.957
11,CTCCGTGT,0.649
12,GGGCGATT,0.735
13,TCTCGAAA,1.12
14,TTGCGGAT,1.07
15,AGTCGCGG,0.0617
16,AACCGCAC,1.1
17,CACCGAGA,1.08
18,CCACGAAT,1.16
19,AAGCGGGA,0.31
20,CCTCGGTG,0.402
21,ACCCGCAT,1.25
22,GCCCGCCA,1.52
23,CCTCGCCC,2.6
24,GGCCGCCT,1.37
25,ACCCGTCA,1.83

row,Sequence,relative CpG methylation activity
1,GGGCGACC,0.449
2,CGCCGGTG,0.806
3,TCACGCTT,2.19
4,AGGCGCTG,1.08
5,CGGCGCTG,0.699
6,GGTCGTTT,0.435
7,GCCCGTCA,1.74
8,CAGCGCGC,0.345
9,TCGCGACT,0.906
10,TGACGTGT,0.174
11,TTGCGACA,1.26
12,CCCCGTCC,1.92
13,GGCCGCTA,0.66
14,GGTCGTCC,0.756
15,TCTCGCAC,1.41
16,CGACGAAA,0.566
17,GGGCGCGT,0.603
18,ACCCGGTG,0.688
19,GAGCGAGT,0.872
20,ACGCGGAA,1.12
21,CTTCGTGG,0.1
22,CACCGGCA,0.708
23,CTGCGTCA,1.83
24,GCACGCGC,1.41
25,AGGCGGAC,1.06

row,Sequence,relative CpG methylation activity
1,GGTCGGTT,0.189
2,ACCCGATC,1.87
3,GATCGACT,0.213
4,AGTCGCAC,0.68
5,AGCCGCCC,1.75
6,CTCCGGGT,0.933
7,TCACGGAT,1.51
8,CCTCGAAG,0.497
9,CAGCGCTA,0.801
10,GCGCGCGC,0.794
11,ACCCGGCC,1.27
12,GGGCGACT,1.14
13,CTGCGGAT,0.814
14,CATCGTAG,0.475
15,TCCCGAGA,1.02
16,GGACGTTG,0.114
17,AGTCGGCT,0.284
18,GCACGTCG,1.84
19,CAACGCAG,0.487
20,AACCGACC,1.25
21,GGGCGCCC,1.52
22,CGTCGGAG,0.128
23,GAACGTGA,0.396
24,GTCCGTAT,0.84
25,CGTCGATG,0.299

row,Sequence,relative CpG methylation activity
1,GAACGCCT,1.72
2,CCTCGTAC,1.23
3,AGACGCCT,1.38
4,TACCGATG,0.497
5,AACCGCCG,1.43
6,CGCCGTTC,1.07
7,CATCGTAA,0.865
8,AACCGTTA,0.79
9,GTGCGCAG,0.784
10,TACCGGCG,0.675
11,GGCCGGTT,1.04
12,GACCGCAC,0.901
13,ATGCGCCA,1.91
14,AGACGTTC,1.16
15,TAACGGGA,0.531
16,CGGCGATG,0.55
17,TAGCGCAT,0.533
18,TAACGACC,0.765
19,TGACGGGT,0.549
20,AAGCGAAA,0.627
21,GACCGAGG,0.714
22,TGTCGACG,0.577
23,AGCCGCCT,1.57
24,GGACGGAA,0.815
25,TGACGCTG,0.692

row,Sequence,relative CpG methylation activity
1,TAACGTCA,1.11
2,AACCGGCC,1.02
3,TGGCGCCG,0.882
4,AATCGCGT,0.365
5,AATCGGTA,0.267
6,AGTCGCAA,0.584
7,GAGCGCTT,2.07
8,GTTCGTGT,0.329
9,ACACGATA,1.52
10,CAGCGTAA,0.768
11,AAACGTCG,1.24
12,GCACGAAT,0.975
13,CGCCGACC,1.05
14,CCCCGGCT,1.12
15,CTACGGCA,1.99
16,TTTCGTCA,2.15
17,ATGCGTAG,1.23
18,CGGCGAGA,0.491
19,TGCCGGGT,0.724
20,TTCCGCTG,1.68
21,TTACGGCC,2.24
22,ATTCGCTA,1.12
23,GGACGTTC,0.957
24,TACCGAGA,0.628
25,GCGCGGCG,1.01

row,Sequence,relative CpG methylation activity
1,ACTCGCGG,0.302
2,TTTCGAAC,1.14
3,AGTCGATG,0.141
4,GCACGCCA,1.99
5,GCTCGAAA,1.03
6,CAGCGAAG,0.215
7,TCTCGGTC,1.22
8,GCTCGGGC,0.946
9,GGTCGTTG,0.154
10,CTCCGCCC,2.44
11,AACCGTAT,0.755
12,TGCCGCAG,0.533
13,AGGCGACT,0.686
14,CACCGGGT,0.714
15,AGCCGTTA,0.473
16,TTGCGTAT,1.47
17,GGGCGCGC,0.507
18,CCCCGTTA,1.11
19,TAACGGGT,0.62
20,CGGCGCTC,1.71
21,TCGCGTAA,1.12
22,GACCGTTC,0.967
23,TTGCGCTG,2.05
24,GATCGGAG,0.0746
25,AAGCGGCC,0.573

row,Sequence,relative CpG methylation activity
1,CTACGACC,2.08
2,TCACGCGC,1.68
3,CGACGTCT,0.915
4,CGTCGGAC,0.827
5,AAGCGACC,0.643
6,CGTCGGGG,0.351
7,GCACGGAA,1.33
8,GCTCGTGG,0.0769
9,TCCCGTAT,0.643
10,TTACGTGC,1.07
11,ATGCGTAA,1.62
12,ACGCGTAG,0.648
13,CTCCGTAG,0.672
14,TGGCGATG,0.361
15,GGTCGCCA,0.94
16,CGGCGGTC,0.398
17,TTGCGACT,1.31
18,TAACGGGG,0.494
19,AACCGGCT,1.31
20,TAACGCAG,0.258
21,CAACGGCC,1.64
22,AAACGCGC,0.782
23,GAGCGGAA,0.6
24,AGTCGTAC,0.479
25,TGACGATT,0.68

row,Sequence,relative CpG methylation activity
1,TTGCGTCG,1.47
2,AAACGCAC,1.03
3,CTCCGCGC,1.79
4,TCTCGTCA,1.53
5,GTGCGCCT,2.43
6,CTGCGGTA,0.762
7,GGGCGTAC,0.5
8,GCCCGAAG,0.67
9,TAGCGAAG,0.299
10,AGACGACA,0.996
11,AGGCGATT,1.11
12,GATCGGAT,0.403
13,GCCCGTAA,1.41
14,CAGCGGTG,0.235
15,TGCCGCGT,0.517
16,CACCGTCT,1.41
17,GGGCGAGT,0.625
18,TTCCGAGC,2.27
19,AGACGGTG,0.376
